Laboratory results: paper PMC4336329 (PLoS ONE, 2015)
About 2,200 (0.71%) of roughly 310,000 compounds showed an effect of 50% or more. The effect is printed as a negative number. The list shows a part of the results.

Each compound was assayed against human ether-à-go-go-related gene (hERG) potassium channel (human, UniProt Q12809) (assay: primary screen, population patch clamp on CHO cells stably expressing hERG).
human ether-à-go-go-related gene (hERG) potassium channel, sequence (Q12809 whole entry, looked up): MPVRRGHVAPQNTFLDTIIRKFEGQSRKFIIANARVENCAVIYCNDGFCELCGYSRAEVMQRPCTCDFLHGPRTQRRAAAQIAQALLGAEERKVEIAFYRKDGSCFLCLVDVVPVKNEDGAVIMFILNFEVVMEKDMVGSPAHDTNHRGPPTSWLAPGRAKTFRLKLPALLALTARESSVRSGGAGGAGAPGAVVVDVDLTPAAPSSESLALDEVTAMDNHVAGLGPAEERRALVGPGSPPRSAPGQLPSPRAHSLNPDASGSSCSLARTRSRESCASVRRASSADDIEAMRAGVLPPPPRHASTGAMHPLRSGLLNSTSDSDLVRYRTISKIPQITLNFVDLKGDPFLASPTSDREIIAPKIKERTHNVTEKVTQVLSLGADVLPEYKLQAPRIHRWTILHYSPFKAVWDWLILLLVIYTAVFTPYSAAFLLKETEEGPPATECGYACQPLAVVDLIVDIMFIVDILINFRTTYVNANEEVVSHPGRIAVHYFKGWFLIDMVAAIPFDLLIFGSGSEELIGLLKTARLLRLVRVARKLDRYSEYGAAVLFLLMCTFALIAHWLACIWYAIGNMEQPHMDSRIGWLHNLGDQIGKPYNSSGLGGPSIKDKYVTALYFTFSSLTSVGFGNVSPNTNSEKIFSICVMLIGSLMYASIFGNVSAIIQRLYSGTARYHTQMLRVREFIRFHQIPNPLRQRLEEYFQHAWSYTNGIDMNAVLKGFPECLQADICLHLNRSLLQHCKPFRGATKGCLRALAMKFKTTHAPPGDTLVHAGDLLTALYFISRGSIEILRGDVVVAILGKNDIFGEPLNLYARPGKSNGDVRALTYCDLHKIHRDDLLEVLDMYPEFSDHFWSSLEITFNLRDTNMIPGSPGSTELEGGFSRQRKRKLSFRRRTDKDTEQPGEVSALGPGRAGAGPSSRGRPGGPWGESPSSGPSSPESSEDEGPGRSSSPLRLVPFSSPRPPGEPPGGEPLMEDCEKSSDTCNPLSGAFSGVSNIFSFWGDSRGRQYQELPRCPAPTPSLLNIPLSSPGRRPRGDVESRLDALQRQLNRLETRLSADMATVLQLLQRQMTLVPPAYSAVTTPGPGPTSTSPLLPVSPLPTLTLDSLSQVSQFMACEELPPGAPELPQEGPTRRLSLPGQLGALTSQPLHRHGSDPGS

SMILES	hERG current change (%, negative = inhibition) at 1uM [%]
CCOc1ccccc1C(=O)NCC(=O)OCC(=O)NCCc1ccc(S(N)(=O)=O)cc1	15.9
CCCN1CCN(CCCNC(=S)Nc2ccc(OC)cc2)CC1	7.04
COc1ccc(N2CCN(C(=O)c3ccc4c(=O)n(CC5CCCO5)c(=O)[nH]c4c3)CC2)cc1 (stereo not drawn)	15.4
CSc1ccccc1C(=O)N1CCN(c2ncccn2)CC1	9.78
CCCn1c(CN(C)Cc2ccccc2)nc2c1c(=O)n(C)c(=O)n2C	4.79
CCOC(=O)CNC(=O)CSc1nc(-c2ccc(OC)cc2)ns1	2.37
Cl.NC1CCN(c2cccc(Cl)n2)CC1	1.81
Oc1ccc(C[C@@H]2CNCCN2CCc2cccc(F)c2)cc1	2.13
Cc1cc2c([nH]c3ccccc32)c(C)[nH+]1.[Cl-]	3.43
CC1=C(C(=O)Nc2ccccc2C(=O)N2CCC(C)CC2)SCCO1	7.58
COCCNc1nnc(SCC(=O)Nc2cc(C)on2)s1	8.08
Cc1cc(Oc2ncccc2[N+](=O)[O-])c2cc(Cl)ccc2n1	1.95
Cc1ccc(CN2C(=O)C(=O)N(CC(N)=O)C2=O)cc1	13.5
O=C(Nc1ccc2c(c1)OCO2)C1CC(=O)N(c2ccc3c(c2)OCCO3)C1 (stereo not drawn)	9.95
O=C(CSC1=NCCS1)c1ccc(Cl)cc1	9.33
CSc1ccc(Cl)c(C(=O)OCC(=O)N2CCN(C(=O)c3ccco3)CC2)c1	-3.76
CCN(Cc1ccncc1)C(=S)NCc1ccccc1	1.83
O=C(N/C(=C\c1ccc([N+](=O)[O-])cc1)C(=O)N1CCOCC1)c1ccco1	-57.1
O=C(CSc1nnc2c(Cl)cc(Cl)cn12)N1CCOCC1	1.14
CC1=C2C(=O)C3C(CC=C4CC(OC5OC(O)C(O)C(O)C5CO)CCC43C)C2CCC12OC1CC(C)CNC1C2C (stereo not drawn)	-2.14

SMILES	hERG current change (%, negative = inhibition) at 1uM [%]
CCOC(=O)C(C(=O)N(C)C)c1ncc(C(F)(F)F)cc1Cl (stereo not drawn)	14.7
CCCc1cc(Nc2ccccc2C)n2ncnc2n1	9.22
COC(=O)c1cccc(N(C(=O)c2cnccn2)C(C(=O)NCc2ccccc2)c2ccco2)c1 (stereo not drawn)	14.1
CCCCNC(=O)COC(=O)CCC(=O)c1ccc(Cl)cc1	13.1
Cc1ccc(NC(=O)C[n+]2ccccc2)cc1C.[Cl-]	9.17
Cc1ccccc1Nc1c(-c2ccccn2)nc2ccccn12	10.7
Fc1ccc(NC(=S)Nc2cccnc2)c(Cl)c1	7.06
Cc1ccc(-n2c(C)nc3ccccc3c2=O)cc1C	-40.6
Cn1ncc(Br)c1NC(=O)Nc1ccc(OC(F)(F)F)cc1	10.8
O=C(COc1ccccc1/C=C1\SC(=O)NC1=O)Nc1ccc(F)cc1	3.48
O=C(N/N=C/c1cccc(Oc2ccccc2)c1)c1ccncc1	11
Cc1cc(Cl)ccc1Oc1ncc(CN2CCN(c3ccccc3)CC2)s1	7.93
Cc1cccc(Nc2ccccc2)c1	-4.07
CCOC(=O)c1cnc2c(cnn2C)c1NCc1ccc(OC)cc1	12.1
COc1ccccc1N1CCN(C2CCCN(C(=O)c3oc(C)cc3C)C2)CC1 (stereo not drawn)	-7.67
O=C(Nc1cccnc1)c1c(F)cccc1F	14.3
COc1cc(OC)cc(-c2oc(=O)c3cc(OC)c(OC)cc3c2/C=C/c2ccc(F)cc2)c1	1.62
CCCn1c(SCC(=O)N2CCCC2)nc2c1c(=O)n(C)c(=O)n2C	-9.97
CN1CCN(/N=C/c2ccc(N(c3ccccc3)c3ccccc3)cc2)CC1.Cl	10.3
Cn1c(O)c(C=NC2CC(C)(C)NC(C)(C)C2)c(=O)n(C)c1=O	6.98

SMILES	hERG current change (%, negative = inhibition) at 1uM [%]
CCSc1nc2nn(-c3ccccc3)c(=O)c-2c2n1CCCCC2	6.48
CC(C)(C)NC(=O)c1cc([N+](=O)[O-])ccc1N1CCCCC1	11.8
O=C(c1noc2c1CCCC2)N1CCN(c2ccc(F)cc2)CC1	20
COc1cc(N)ccc1NC(=O)c1cccs1	-2.4
Cn1c(=NC(=O)COc2ccccc2)sc2ccccc21	7.4
Nc1ccccc1SCc1c(Cl)cccc1Cl	4.76
Cc1ccc(NC(=O)c2ccc3c(c2)OCCO3)cc1	16.8
Nc1ncc(Br)cc1S(=O)(=O)NCCC(=O)NCCc1ccccc1	9.8
O=C(Cc1ccccc1)NNC(=S)Nc1ccccc1	10.2
COC(=O)c1cc(-c2ccc(S(=O)(=O)N3CCCC3)cc2)c(C(F)(F)F)s1	15.8
Cc1ccc(-c2ccc(=O)n(CC(=O)NCCN(CC(C)C)CC(C)C)n2)cc1	12.1
CCOC(=O)c1ccc(NC(=O)C2CCCN(S(=O)(=O)c3cnc[nH]3)C2)cc1 (stereo not drawn)	9.7
Cc1nc2ccc([N+](=O)[O-])cc2nc1C	0.886
CCOC(=O)c1nc(S(C)(=O)=O)ncc1N1CCOCC1	12.1
Cc1ccc(C)c(SCC(=O)c2ccc[nH]2)c1	8.5
COc1cc(C=O)ccc1OCc1ccccc1Br	5.93
CCOc1cc(NS(C)(=O)=O)c(OCC)cc1NC(=O)c1cccs1	5.57
CC(=O)C1C(c2ccc(Cl)cc2)c2c(noc2C)CC1(C)O (stereo not drawn)	12.7
COc1ccc(Cl)cc1C(=O)OCC(=O)NC(=O)c1cccn1C	-3.66
COC(=O)c1ccc(/C=N\NC(=O)CC(=O)NCCc2ccccc2)cc1	10.6
